# Source: the supplement of paper PMC10886265
# What was measured:
# Assay in all cases: Isolates counted by MIC; Broth microdilution (CLSI), cation-adjusted Mueller-Hinton broth, two-fold steps from 0.25 to 128 µg/mL, 18 h at 37 °C.
# [1] = tested on: Enterobacter bugandensis with no carbapenemase gene listed (40 isolates)
# [2] = tested on: Klebsiella oxytoca with no carbapenemase gene listed (21 isolates)
# [3] = tested on: Klebsiella pneumoniae with no carbapenemase gene listed (17 isolates)
# [4] = tested on: Enterobacter cloacae with no carbapenemase gene listed (25 isolates)
# [5] = tested on: Enterobacter asburiae with no carbapenemase gene listed (16 isolates)
SMILES,isolate count ([1]; MIC: 8 µg/mL),isolate count ([1]; MIC: 16 µg/mL),isolate count ([1]; MIC: 32 µg/mL),isolate count ([1]; MIC: 64 µg/mL),isolate count ([2]; MIC: 16 µg/mL),isolate count ([2]; MIC: 32 µg/mL),isolate count ([2]; MIC: 64 µg/mL),isolate count ([3]; MIC: 8 µg/mL),isolate count ([3]; MIC: 16 µg/mL),isolate count ([3]; MIC: 32 µg/mL),isolate count ([3]; MIC: 64 µg/mL),isolate count ([4]; MIC: 8 µg/mL),isolate count ([4]; MIC: 16 µg/mL),isolate count ([4]; MIC: 32 µg/mL),isolate count ([4]; MIC: 64 µg/mL),isolate count ([5]; MIC: 8 µg/mL),isolate count ([5]; MIC: 16 µg/mL),isolate count ([5]; MIC: 32 µg/mL),isolate count ([5]; MIC: 64 µg/mL),isolate count ([1]; MIC: 4 µg/mL),isolate count ([2]; MIC: 4 µg/mL),isolate count ([2]; MIC: 8 µg/mL),isolate count ([3]; MIC: 4 µg/mL),isolate count ([4]; MIC: 4 µg/mL),isolate count ([5]; MIC: 4 µg/mL)
C[C@@H](O)[C@H]1C(=O)N2C(C(=O)O)=C(S[C@@H]3CN[C@H](C(=O)N(C)C)C3)[C@H](C)[C@H]12 [Meropenem],1,23,7,9,9,11,1,4,6,5,2,4,13,6,2,4,5,6,1,,,,,,
C[C@@H](O)[C@H]1C(=O)N2C(C(=O)O)=C(S[C@@H]3CN[C@H](C(=O)Nc4cccc(C(=O)O)c4)C3)[C@H](C)[C@H]12 [Ertapenem],7,20,12,,12,1,,3,5,2,,4,8,3,1,5,7,3,,1,4,4,7,9,1
C[C@@H](O)[C@H]1C(=O)N2C(C(=O)O)=C(SCCNC=N)C[C@H]12 [Imipenem],20,4,3,5,8,,1,7,5,1,1,14,3,1,2,7,2,,1,8,,12,3,5,6

# Each value is the number of isolates with that result; steps that no isolate showed are left empty. MIC by broth microdilution (CLSI, 0.25-128 µg/mL, 18 h, 37 °C) of Gram-negative wastewater isolates picked on carbapenem-selective plates; higher = less susceptible. No active / inactive call. Isolates were selected for resistance.
